SMILES strings stand for the structures. Among all 2,200 compounds or so, fewer than 10 were called active. The list shows a part of the results. The source made no clear call on entries shown without one.

The experiment addresses GTPase KRas (Homo sapiens) (UniProt P01116). The experiment in a line: Covalent labelling of cysteine mutants by fragments, read by mass spectrometry (AID 2202238). Further details: protein at 5 µM with 500 µM competing thiol for 1.5 h. The following applies: KRAS G12D cysteine mutants, disulfide tethering, MALDI-TOF labeling; stronger effect = higher value; H27C mutant labeling; fragment at 500 µM.
Chain of UniProt P01116 (P01116 whole entry, looked up, the tested form may be a part): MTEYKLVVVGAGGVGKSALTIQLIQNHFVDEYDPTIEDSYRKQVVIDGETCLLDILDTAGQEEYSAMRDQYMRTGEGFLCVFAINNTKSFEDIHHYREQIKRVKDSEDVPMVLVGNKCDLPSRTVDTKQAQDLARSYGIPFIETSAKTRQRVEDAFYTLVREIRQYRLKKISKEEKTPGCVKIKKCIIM
`CCCOc1nc2ccccc2cc1C(=O)NCCS` came in with a percent labeling of 15.9%.

In turn, `Cc1cccc(NC(=O)N2CCCC(C(=O)NCCS)C2)c1` (stereo not given) came in with a percent labeling of 27.1%.

`O=C(NCCS)c1ccc(Oc2cccc(Cl)c2Cl)cc1` showed a percent labeling of 50.3%.

As to `O=C(NCCS)c1cc(OCC(F)(F)F)c2ccccc2n1`, the percent labeling was 30.9%.

Turning to `Cc1cc(C)c2cc(C(=O)NCCS)sc2n1`, the percent labeling was 35.6%.

In turn, `O=C(CCc1nc2cc(Br)ccc2s1)NCCS` gave a percent labeling of 9.9%.

In turn, `CN(C)CCOc1ccc(NC(=O)CCS)c(F)c1` returned a percent labeling of 60%.

As to `CC(C)(C)OC(=O)NCc1nc(C2CCN(C(=O)CCS)CC2)n[nH]1`, the percent labeling is 21.6%.

As for `N#Cc1c(N)sc2c1CCN(C(=O)CCS)C2`, the percent labeling amounted to 22.2%.

For `Cc1ncc(NC(=O)CCS)cc1C(N)=O`, the percent labeling turned out to be 39.9%.

As for `Cc1nn(Cc2ccc(Cl)cc2)c2sc(C(=O)NCCS)cc12`, the percent labeling is 27.3%.

In turn, `O=C(Cc1ccc2c(c1)OC(F)(F)O2)NCCS` displayed a percent labeling of 29.4%.

As to `O=C(CCS)NC1c2ccccc2CC12CCOCC2` (stereo not given), the percent labeling stood at 39.9%.

The molecule `O=C(NCCS)c1coc(C2CCCCC2)n1` gave a percent labeling of 23.2%.

With `CC(CC(=O)NCCS)NC(=O)C1CCCC1` (stereo not given), the percent labeling was 28.1%.

Regarding `Cc1cc(C)c(C(=O)NC2CCN(C(=O)CCS)CC2)o1`, the percent labeling was 46.2%.

For the molecule `COc1ccc(C(=O)NC(C(=O)NCCS)c2ccccc2)cc1` (stereo not given), the percent labeling turned out to be 26%.

The molecule `CCCCN(C)c1ncc(Cl)c(C(=O)NCCS)n1` showed a percent labeling of 21.1%.

For the molecule `CCOC(=O)c1n[nH]c2c1CN(C(=O)CCS)CC2`, the percent labeling came out at 43.9%.

With `O=C(Cn1nc(C(F)F)cc1C(F)F)NCCS`, the percent labeling is 30.9%.

Molecule `Cc1cc(=O)c(C(=O)NCCS)nn1-c1ccccc1F` came in with a percent labeling of 43.8%.

Molecule `CCOC(=O)c1nn(-c2ccccc2)c2c1CN(C(=O)CCS)CC2` returned a percent labeling of 28.7%.

With `O=C(CCS)NCC12CCC(CO)(CC1)OC2`, the percent labeling was determined as 27.3%.

Regarding `O=C(CCS)Nc1ccc(OCc2ccccc2)nc1`, the percent labeling came to 25.2%.

On to `CC(Cn1cnc2c(cnn2C)c1=O)NC(=O)CCS` (stereo not given), for which the percent labeling worked out at 35.6%.

Consider `CCc1nc2nccc(C(=O)NCCS)c2[nH]1`, for which the percent labeling came to 36.9%.

As for `O=C(CCS)NCc1cccc(C(F)F)c1`, the percent labeling amounted to 36.7%.

The molecule `O=C(NCCS)c1ncn2cc(Cl)ccc12` came in with a percent labeling of 30%.

In turn, `Cc1nn(C)c2ncc(NC(=O)CCS)cc12` had a percent labeling of 35.4%.

In the case of `O=C(CCS)Nc1ccc(-c2ccccc2)cc1F`, the percent labeling stood at 23.4%.

`Cc1[nH]cnc1C(=O)NCCS` displayed a percent labeling of 6.6%.

Molecule `CC1(C)CCc2onc(C(=O)NCCS)c2C1` yielded a percent labeling of 28%.

Consider `O=C(NCCS)C1CCCN1c1ncnc2ccccc12` (stereo not given), for which the percent labeling is 35.9%.

`O=C(CCS)NCc1cccc(OCc2ccccc2)c1` returned a percent labeling of 30%.

The molecule `Cn1cnc(-c2ccc(C(=O)NCCS)cc2)n1` showed a percent labeling of 44.1%.

On to `O=C(NCCS)c1ccc(-c2csnn2)cc1`, for which the percent labeling turned out to be 18.9%.

For the molecule `Cc1nn(C)c(NC(=O)CCS)c1-c1ccccc1`, the percent labeling amounted to 41.5%.

As for `Cc1c(C(=O)NCCS)ccn1Cc1ccccc1`, the percent labeling stood at 28.7%.

Regarding `Cc1nn(C)cc1C1CCCN1C(=O)CCS` (stereo not given), the percent labeling was found to be 24.4%.

Molecule `COc1cccc(Br)c1C(=O)NCCS` showed a percent labeling of 37.3%.

For `Cc1cn(C(C)(C)C(=O)NCCS)nc1C(F)(F)F`, the percent labeling is 30%.

`COc1ccc(Br)c2c1C(NC(=O)CCS)CC2` (stereo not given) gave a percent labeling of 43%.

`Cn1ncc(C(F)(F)F)c1CNC(=O)CCS` returned a percent labeling of 35.5%.

Molecule `Cc1nc2cc[nH]n2c(=O)c1CC(=O)NCCS` came in with a percent labeling of 27.2%.

Regarding `Cc1cc(C(=O)NCCS)c2nccc(C)c2c1`, the percent labeling was found to be 28.4%.

On to `O=C(NCCS)c1cc2ccc(F)cc2s1`, for which the percent labeling came to 26.2%.

`Cc1ccc(C)n1-c1sccc1C(=O)NCCS` returned a percent labeling of 7.7%.

As to `CCc1nn(CC(=O)NCCS)c(=O)c2cc3sccc3n12`, the percent labeling came to 16.3%.

With `CN(Cc1cc(F)ccc1Oc1ccc(F)cc1Cl)C(=O)CCS`, the percent labeling turned out to be 29.5%.

The molecule `Cc1nc2nc(C(F)(F)F)nn2c(C)c1CCC(=O)NCCS` had a percent labeling of 29.2%.

The molecule `O=C(NCCS)C1CCC(N2CCOCC2)CC1` (stereo not given) showed a percent labeling of 41%.

`CC(=O)Nc1c(Cl)ccc(C(=O)NCCS)c1Cl` gave a percent labeling of 40%.

Molecule `O=C(CCS)NCc1ccc(-c2cccnc2)c(F)c1` displayed a percent labeling of 52.6%.

`O=C(Nc1cccc2c1CCCN2C(=O)CCS)NC1CCCCC1` returned a percent labeling of 19.9%.

`O=C(CCS)Nc1ccc(Cl)cc1-c1nn[nH]n1`: the percent labeling amounted to 32.3%.

The molecule `O=C(CCS)Nc1ccc(-c2n[nH]c3c2CCCC3)cc1` returned a percent labeling of 36.1%.

In turn, `O=C(CCS)Nc1cccnc1OCC(F)(F)F` returned a percent labeling of 33.6%.

Take `Cn1cc(N2CC(C(=O)NCCS)CC2=O)cn1` (stereo not given): the percent labeling was 27.4%.

In turn, `CCCC(CC1CCCCC1)C(=O)NCCS` (stereo not given) displayed a percent labeling of 20.5%.

`Cn1c(C2CC2)nn(CC(=O)NCCS)c1=O` gave a percent labeling of 22.2%.

Molecule `CN(C)C1(C(=O)NCCS)CCOc2ccccc21` (stereo not given) yielded a percent labeling of 34.3%.

Molecule `Cc1ncc(CNC(=O)CCS)n1-c1ccccc1` displayed a percent labeling of 40.1%.

`O=C(CC1c2ccccc2Oc2ccccc21)NCCS` returned a percent labeling of 23.1%.

`O=C(CCS)N(Cc1ccco1)Cc1ccco1`: the percent labeling came to 18.4%.

With `O=C(CCS)N1CCC(c2nc(-c3ccncc3)cs2)CC1`, the percent labeling is 45%.

`COCCc1noc(CC2CCN(C(=O)CCS)CC2)n1` gave a percent labeling of 41%.

With `Cc1csc(CC2CCCN2C(=O)CCS)n1` (stereo not given), the percent labeling is 41.7%.

`O=C(CCS)NCCC1(O)C(=O)Nc2ccccc21` (stereo not given): the percent labeling was 44.1%.

`O=C(CCS)N1CCC(COc2ccc(C(F)(F)F)cn2)CC1` registered a percent labeling of 25%.

`O=C(CCS)NCC(=O)N1CCOc2ccccc21` gave a percent labeling of 44.1%.

Source of the values: PubChem BioAssay AID2202238 (Ras Initiative Chemistry Research Team, Frederick National …, 2025).
